# Laboratory results: PubChem BioAssay AID686970 (National Center for Advancing Translational Sciences (NCATS), 2013)
# In all, about 360,000 compounds went through this assay and about 6,000 (1.7%) were called active. Inconclusive results, whose numbers are uncertain, are shown with a selection of clear calls. Calls come from the whole dose curve; as a rule, active = well fitted cell-killing curve with a large enough effect; inconclusive = small, poorly fitted or top-dose-only effect, or effect the other way; inactive = flat fitted curve, though single readings scatter. No potency is given beside an inconclusive call; the fits are too rough.
# Assay: qHTS for induction of synthetic lethality in tumor cells producing 2HG: qHTS for the HT-1080-NT fibrosarcoma cell line;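 note: NT is the 2HG producing partner of a matched IDH1 knockdown line; nearly all actives have a fitted effect of over 55% in size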;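 for activity, negative = less viability: 0% = DMSO-treated cells and -100% = media-only wells without cells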
# Settings: HT-1080-NT fibrosarcoma viability, CellTiter-Glo ATP luminescence, 48 h; activity, negative = less viability: at 46.1 µM (top of the series) unless noted
# Outline: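 Viability by CellTiter-Glo luminescence after 48 h compound exposure at 37C of HT-1080-NT cells (750/well, RPMI, 5% FBS). % activity scaled between DMSO wells and medium-only wells, then curve-fitted and categorized by curve class.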
# Potency is the fitted concentration of half-maximal effect; tags give direction and shape of the fitted curve.
SMILES,Potency,"activity, negative = less viability"
C/C(=N\Nc1cccc2cccnc12)c1ccccn1,"inconclusive [cytotoxic, single point]",–
O=C(N/N=C/c1ccc2c(c1)OCO2)c1cccs1,"inconclusive [cytotoxic, partial curve]",–
Cc1[nH]c2ccccc2c1C(O)CN1CCN(c2cccc(C(F)(F)F)c2)CC1 (centres undefined),"inconclusive [cytotoxic, single point]",–
Cc1cc(C(=O)CN2C(=O)NC3(CCCCC3)C2=O)c(C)n1Cc1ccc2c(c1)OCO2,–,inactive: 1.11%
C/C(CCc1oc2ccc(Cl)cc2c1-c1ccc(C)o1)=N\O,"inconclusive [cytotoxic, single point]",–
O=C(CSc1nc2ccccc2n1S(=O)(=O)c1cccc([N+](=O)[O-])c1)NCCc1ccccc1,–,inactive: -4.01%
CC(=O)c1ccc(N2CCN(S(=O)(=O)c3ccc4c(c3)NC(=O)CC(=O)N4)CC2)cc1,"inconclusive [cytotoxic, single point]",–
CCn1ncc(C2C(C(=O)Nc3ccc(C)cn3)=C(C)NC3=C2C(=O)CCC3)c1C (centres undefined),"inconclusive [rising, single point]",–
Cc1nn(-c2ccccc2)c(Cl)c1C1C(C#N)=C(N)OC2=C1C(=O)CC(C)(C)C2 (centres undefined),"inconclusive [cytotoxic, single point]",–
Cc1cccc(-c2cc(NC=O)c3ncc(-c4cccc(C(=O)N(C)C)c4)n3c2)c1,–,inconclusive: -32.1% [cytotoxic]
Cc1c(Br)c([N+](=O)[O-])nn1C(C)C(=O)NCc1cccs1 (centres undefined),"inconclusive [cytotoxic, full curve, poor fit]",–
CCCc1cc(-c2nc(-c3ccc(C)cc3)cs2)ccn1,"inconclusive [cytotoxic, single point]",–
Cc1ccc(C(=O)N2CCN(c3ccc([N+](=O)[O-])c(NCc4cccnc4)c3)CC2)cc1,"inconclusive [cytotoxic, partial curve, poor fit]",–
Cc1ccc(NC(=O)C2(C)CCN2C(=O)Cc2ccc(-c3ccccc3)cc2)cc1 (centres undefined),"inconclusive [cytotoxic, partial curve]",–
COc1ccc(C(=O)NC2CCc3ccccc32)cc1OC1CCN(C(C)=O)CC1 (centres undefined),–,inactive: 0%
O=C1N[C@H]2CC=C[C@H]2N(Cc2cccs2)c2ccccc21,–,inactive: -0.0431%
O=C(NCc1ccco1)Nc1cccc([N+](=O)[O-])c1,"inconclusive [rising, single point]",–
O=C(Nc1ccc2c(c1)OCCO2)C(c1ccc(C(F)(F)F)cc1)n1c(=O)c(-c2cc3ccccc3[nH]2)nc2ccccc21 (centres undefined),"inconclusive [cytotoxic, single point]",–
CC(Oc1ccc(F)cc1)C(=O)Nc1cc(C(F)(F)F)ccc1-n1cncn1 (centres undefined),–,inactive: -9.09%
CC1CCCCC1n1c(=S)[nH]c2ccccc2c1=O (centres undefined),active: 12.6 µM,–
COc1ccc(C(=O)C2CCCN(C3Cc4ccccc4C3)C2)c(OC)c1 (centres undefined),"inconclusive [cytotoxic, partial curve]",–
CN(C)CCNC(=O)c1cccc(-c2cnc3c(NC=O)cc(-c4ccc(F)cc4)cn23)c1,"inconclusive [cytotoxic, single point]",–

SMILES,Potency,"activity, negative = less viability"
COc1ccc(S(=O)(=O)n2nc(OC(=O)c3cccs3)cc2N)cc1,–,inactive: 4.15%
O=C(/C(=C(\[O-])c1ccccc1)[n+]1ccc2ccccc2c1)c1ccc([N+](=O)[O-])cc1,–,inactive: 10.3%
Nc1nc(Cl)nc2c1ncn2[C@H]1C[C@H](O)[C@@H](CO)O1,"inconclusive [cytotoxic, full curve]",–
CCOC(=O)N1CCN(C(=O)C2CCC(=O)N(CCCN3CCCC3=O)C2)CC1 (centres undefined),"inconclusive [rising, single point]",–
O=C(Nc1ccc(Oc2ccc(NC(=O)c3ccco3)c(NC(=O)c3ccco3)c2)cc1)c1ccco1,–,inactive: -6.99%
CC(C)(C)C1CCc2c(sc(N)c2C(N)=O)C1 (centres undefined),–,inconclusive: 6.68%
Cc1ccc(NC(=O)CN(C)C(=O)c2cc3ccccc3o2)cc1,–,inactive: 23.1%
CCOc1ccc(S(=O)(=O)N2CCN(C(=O)CCOc3ccccc3C)CC2)cc1,–,inactive: -4.04%
Cc1ccc(NC(=O)COC(=O)c2ccc3c(c2)OCCO3)cc1,–,inactive: 2.69% [at 9.24 µM]
COc1ccc(C(C(=O)NC2CCCC2)N(C(=O)c2snc(-c3ccc(F)cc3)c2N)c2ccc(F)cc2)cc1 (centres undefined),"inconclusive [cytotoxic, single point]",–
COCc1nnc(NC(=O)c2ccc(S(=O)(=O)N(CC(C)C)CC(C)C)cc2)o1,"inconclusive [cytotoxic, single point]",–
CCOc1ccc(N)c(SSc2cc(OCC)ccc2N)c1,"inconclusive [cytotoxic, single point]",–
O=C(NC(C(=O)c1ccccc1)N1CCOCC1)c1ccccc1 (centres undefined),"inconclusive [rising, partial curve, poor fit]",–
Cc1ccc(S(=O)(=O)N(C)CCCC(=O)Nc2ccncc2)cc1,–,inactive: -4.98%
O=C(Nc1cccnc1)c1ccc(C(=O)Nc2cccnc2)cc1,"inconclusive [cytotoxic, single point]",–
CCNC(=O)c1sc(-c2ccccc2)nc1C,–,inconclusive: 15.2%
Nc1cc(Cl)ccc1CN1C(=O)c2ccccc2C1=O,"inconclusive [rising, single point]",–
Cc1[nH]c2ccccc2c1N=Nc1ccc(F)cc1,active: 20.6 µM,–
O=C1C(NS(=O)(=O)c2cccs2)=C(N2CCN(c3cccc(C(F)(F)F)c3)CC2)C(=O)c2ccccc21,"inconclusive [cytotoxic, partial curve]",–
Cc1[nH]c2ccccc2c1SCC(=O)NNC(=O)Nc1ccc(OC(F)(F)F)cc1,"inconclusive [cytotoxic, single point]",–
Cc1cc(N2CCN(c3ccccc3)CC2)nc(-n2nc(C)cc2C)n1,active: 0.708 µM,–
CCOC(=O)C1=C(N)OC2=C(C(=O)CC(C)(C)C2)C1c1ccc(C)s1 (centres undefined),–,inconclusive: 30%
